Measurements as given in a collection of fitness landscapes (doi:10.1126/science.1257360).
The other results are listed elsewhere or left out.

B1: PhoQ; a variant is named by its letters at X, in order, P23837 (parent)
chain: MKKLLRLFFPLSLRVRFLLATAAVVLVLSLAYGMVALIGYSVSFDKTTFRLLRGESNLFYTLAKWENNKLHVELPENIDKQSPTMTLIYDENGQLLWAQRDVPWLMKMIQPDWLKSNGFHEIEADVNDTSLLLSGDHSIQQQLQEVREDDDDAEMTHSVAVNVYPATSRMPKLTIVVVDTIPVELKSSYMVWSWFIYVLSANLLLVIPLLWVAAWWSLRPIEALAKEVRELEEHNRELLNPATTRELTSLVRNLNRLLKSERERYDKYRTTLTDLTHSLKTPLXXLQXXLRSLRSEKMSVSDAEPVMLEQISRISQQIGYYLHRASMRGGTLLSRELHPVAPLLDNLTSALNKVYQRKGVNISLDISPEISFVGEQNDFVEVMGNVLDNACKYCLEFVEISARQTDEHLYIVVEDDGPGIPLSKREVIFDRGQRVDTLRPGQGVGLAVAREITEQYEGKIVAGESMLGGARMEVIFGRQHSAPKDE

Variants of: B1
Test: enrichment ratio after two sorts for PhoP signalling (ratio (wild type AVST 3.29)); higher = more functional
Conditions: with PhoP (E. coli)

Variant	enrichment ratio
HHVQ	≤ 0.25
MGWC	32.1
NWEY	≤ 0.25
YKQY	≤ 0.25
IWLT	≤ 0.25
SFCE	≤ 0.25
GKYV	≤ 0.25
SCLM	8.63
FMYQ	≤ 0.25
RFNW	≤ 0.25
KGVD	≤ 0.25
NYLY	≤ 0.25
MLVF	≤ 0.25
RSWH	≤ 0.25
IKRT	≤ 0.25
SHWA	≤ 0.25
QNMC	≤ 0.25
TDGV	≤ 0.25
HKFH	≤ 0.25
LKCI	≤ 0.25
AITH	4.23
FGTK	≤ 0.25
MQCG	≤ 0.25
HCYK	≤ 0.25

Variant	enrichment ratio
GRAF	≤ 0.25
PESH	≤ 0.25
DDTS	≤ 0.25
CNMF	≤ 0.25
HCKR	≤ 0.25
QPHF	≤ 0.25
VVCP	≤ 0.25
QGVT	≤ 0.25
NQVF	≤ 0.25
VSKW	≤ 0.25
SVNW	≤ 0.25
HFNK	≤ 0.25
IRVG	≤ 0.25
QGWD	≤ 0.25
YGLG	6.55
WEWG	≤ 0.25
YALV	11.1
SGMV	14.3
EAYC	≤ 0.25
YQWW	≤ 0.25
LNSE	≤ 0.25
KTKM	≤ 0.25
AMVI	16.3
ESFH	≤ 0.25

Variant	enrichment ratio
YKWP	≤ 0.25
VLCD	≤ 0.25
SKYV	≤ 0.25
MIVT	≤ 0.25
EDLT	≤ 0.25
QADC	0.684
QAAI	12.7
ITIV	≤ 0.25
TNLW	≤ 0.25
FAIK	≤ 0.25
CLHF	≤ 0.25
RGWD	≤ 0.25
PVVR	≤ 0.25
TEMT	7.24
NRAN	≤ 0.25
PAME	≤ 0.25
YMMA	≤ 0.25
MLHI	1.88
MHMN	≤ 0.25
WAYS	≤ 0.25
AINL	2.56
LFFL	≤ 0.25
NYSH	≤ 0.25
YRAK	≤ 0.25

Variant	enrichment ratio
PDQK	≤ 0.25
ILHD	≤ 0.25
GRGR	≤ 0.25
FWCM	≤ 0.25
REIM	≤ 0.25
YWMC	≤ 0.25
ILVK	≤ 0.25
CITA	12.4
WRQA	≤ 0.25
KPTN	≤ 0.25
TQTT	23.1
FLWL	≤ 0.25
SDYG	≤ 0.25
YYQT	≤ 0.25
VFNW	≤ 0.25
MDSD	≤ 0.25
NEDY	≤ 0.25
AVCH	13
NATP	≤ 0.25
VYNN	≤ 0.25
RHIP	≤ 0.25
RPQC	≤ 0.25
DGYM	≤ 0.25
LMVT	≤ 0.25

Variant	enrichment ratio
FKWQ	≤ 0.25
QPWL	≤ 0.25
NYNY	≤ 0.25
IVHI	≤ 0.25
HSHH	≤ 0.25
SQRF	≤ 0.25
LDTG	≤ 0.25
PKIL	≤ 0.25
AYMD	≤ 0.25
WNRM	≤ 0.25
MTYW	≤ 0.25
ARYW	≤ 0.25
WWGS	≤ 0.25
DFWF	≤ 0.25
YYRM	≤ 0.25
GVSH	2.66
CILP	≤ 0.25
DIHC	≤ 0.25
PKTV	≤ 0.25
QVDR	2.61
GEFS	≤ 0.25
IWLK	≤ 0.25
VPKL	≤ 0.25
MYQQ	≤ 0.25

Variant	enrichment ratio
SRDG	0.277
DYNT	≤ 0.25
SDLP	≤ 0.25
NFDC	≤ 0.25
SNST	9.41
KSAR	≤ 0.25
VSSA	≤ 0.25
QPPE	≤ 0.25
PVRS	≤ 0.25
YKWR	≤ 0.25
SWGS	≤ 0.25
TKEY	≤ 0.25
VDYC	≤ 0.25
LNIK	≤ 0.25
RLVD	≤ 0.25
PWCC	3.37
ETAQ	≤ 0.25
TNNI	3.41
IYLP	≤ 0.25
GKHN	≤ 0.25
VCDW	≤ 0.25
YMLS	≤ 0.25
QQMF	≤ 0.25
MRVC	≤ 0.25

Variant	enrichment ratio
WSPD	≤ 0.25
IRSW	≤ 0.25
RFNH	≤ 0.25
HGVM	≤ 0.25
VKYE	≤ 0.25
SQAF	3.99
GPYS	≤ 0.25
RVFA	≤ 0.25
GLTK	≤ 0.25
ETRQ	≤ 0.25
QLFH	≤ 0.25
DFPE	≤ 0.25
HTMS	≤ 0.25
AKLF	7.81
IAIY	≤ 0.25
NLCW	≤ 0.25
IGCK	≤ 0.25
HPFV	≤ 0.25
TYRK	≤ 0.25
AYMH	≤ 0.25
FVDG	≤ 0.25
RCRA	≤ 0.25
SMPK	≤ 0.25
NTND	≤ 0.25

Variant	enrichment ratio
WFLQ	≤ 0.25
AIEL	≤ 0.25
GRGW	≤ 0.25
KELD	≤ 0.25
RCGY	≤ 0.25
SRNE	≤ 0.25
MKPN	≤ 0.25
VDGI	≤ 0.25
MPER	≤ 0.25
PSFL	≤ 0.25
WQRR	≤ 0.25
KTGG	≤ 0.25
SYKG	≤ 0.25
FPKT	≤ 0.25
HSCT	≤ 0.25
SPIG	≤ 0.25
EDAH	≤ 0.25
VLIA	≤ 0.25
EYFN	≤ 0.25
FSDT	≤ 0.25
QCIS	≤ 0.25
VPES	≤ 0.25
YSPD	≤ 0.25
FEED	≤ 0.25

Variant	enrichment ratio
SGRH	≤ 0.25
WIDY	≤ 0.25
FMAF	≤ 0.25
SLFT	≤ 0.25
NGRY	≤ 0.25
ICTH	≤ 0.25
LPEF	0.394
EAVH	≤ 0.25
WHGG	≤ 0.25
YQGA	≤ 0.25
LVMI	≤ 0.25
HRII	≤ 0.25
FFNP	≤ 0.25
SEVK	12.3
RGYN	≤ 0.25
KMST	≤ 0.25
KIHV	≤ 0.25
IHSL	≤ 0.25
YRLI	≤ 0.25
KQRI	≤ 0.25
RHPC	≤ 0.25
HGVE	≤ 0.25
TPTE	≤ 0.25
HSVY	≤ 0.25

Variant	enrichment ratio
ATCV	15.4
SWSD	≤ 0.25
VSHF	≤ 0.25
HYVI	≤ 0.25
DFWP	≤ 0.25
TFYC	≤ 0.25
TCHM	3.39
LYTD	≤ 0.25
GYPM	≤ 0.25
GYTR	≤ 0.25
FKFG	≤ 0.25
KVCQ	≤ 0.25
EHDG	≤ 0.25
TEFE	≤ 0.25
VTYH	≤ 0.25
WFTH	≤ 0.25
TWQT	≤ 0.25
VSLP	≤ 0.25
NPMR	≤ 0.25
WRIW	≤ 0.25
VKVD	≤ 0.25
QSWM	11.9
HSDS	≤ 0.25
RIPM	≤ 0.25

Variant	enrichment ratio
QAPW	≤ 0.25
TSPS	≤ 0.25
SFNR	≤ 0.25
NFEN	≤ 0.25
TPKK	≤ 0.25
ESTW	≤ 0.25
IMQE	≤ 0.25
FPPC	≤ 0.25
VFWP	≤ 0.25
WTIY	≤ 0.25
RTLN	≤ 0.25
SLKH	≤ 0.25
WHRY	0.322
FKFI	≤ 0.25
DKRD	≤ 0.25
TIII	≤ 0.25
FHPF	≤ 0.25
DALG	≤ 0.25
RSLT	≤ 0.25
FKDT	≤ 0.25
NGTK	≤ 0.25
CIFH	≤ 0.25
VKFM	≤ 0.25
SHHP	≤ 0.25

Variant	enrichment ratio
SMSC	8.8
FRDT	≤ 0.25
SDTD	≤ 0.25
FGYY	≤ 0.25
RQPG	≤ 0.25
GEGQ	≤ 0.25
VRVA	≤ 0.25
APVH	≤ 0.25
PMGE	≤ 0.25
VFPM	≤ 0.25
ERRI	≤ 0.25
FTLP	≤ 0.25
MNIY	≤ 0.25
FLWT	≤ 0.25
EETT	≤ 0.25
MPSN	≤ 0.25
VIYY	≤ 0.25
VGIL	≤ 0.25
VELY	≤ 0.25
YGWV	≤ 0.25
PAPD	≤ 0.25
GFPY	≤ 0.25
SMGD	1.08
NLHM	≤ 0.25

Variant	enrichment ratio
WYGP	≤ 0.25
RAQH	≤ 0.25
WCQP	≤ 0.25
IMTF	≤ 0.25
MGTF	≤ 0.25
HGCC	≤ 0.25
IQPV	≤ 0.25
QVMN	≤ 0.25
YCVW	≤ 0.25
WCLQ	≤ 0.25
QWLC	≤ 0.25
MPCK	≤ 0.25
RRYK	≤ 0.25
WEQS	≤ 0.25
NIFD	≤ 0.25
MYKQ	≤ 0.25
TNFD	≤ 0.25
RQCL	≤ 0.25
